± gives the standard deviation. This is a selection; strong and weak results do not stand in their true shares.
Tested on: MIWI (PIWIL1) piRISC loaded with L1MC piRNA (30 nt)
Experiment: pre-steady-state target cleavage rate (min^-1); MIWI and MILI are mouse PIWI proteins and EfPiwi is from a freshwater sponge; tags in brackets are library labels; higher = faster piRNA-guided slicing of the target
Conditions: guide: L1MC piRNA 5'p-UAACUAAAUACUAUGCAAGCUGUAGGUCCU
How it was run: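 Cleave-'n-Seq reactions paired 0.1 nM transcribed, DNA-blocked target RNA library with 1 nM active affinity-purified piRISC holding one synthetic guide, plus or minus 500 nM GTSF1 partner protein, in HEPES–potassium acetate buffer at 33 °C for 0–8 or 0–960 min. After sequencing of uncleaved targets and normalisation to depth and weakly complementary targets, the pre-steady-state cleavage rate was taken from a burst-and-steady-state fit. Three trials were pooled, and k3 was capped at 0.0001 min^-1.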

[1] = auxiliary factor: 500 nM mouse GTSF1
[2] = auxiliary factor: none (no GTSF1)

Sequence | pre-steady-state target cleavage rate [1] | pre-steady-state target cleavage rate [2]
UCCUGGUACAGCUUCAUAGUAUUUAGUUA | 0.634 ± 0.072 | 0.00885 ± 0.0023
UCGACGUACAGCUUGCAUACUAUUUAGUUA | 0.309 ± 0.011 | 0.0391 ± 0.0076
AGGACCUACACGUUGCAUAGUAUUUAGUUA | 1.11 ± 0.043 | 0.0422 ± 0.0075
UCCUGGAACAGCUUGCAUAGUAGUUAGUUA | 0.329 ± 0.027 | 0.0256 ± 0.005
AGGACCUACAGCUUGCAUAGGAUUUAGUUA | 0.0532 ± 0.011 | 0.00851 ± 0.0027
UCCUGGAUCAGCUUGCAUAGUAUUUAGUCA | 1.05 ± 0.068 | 0.0305 ± 0.0092
AGGACCUACACCUUGCAUAGUAUUUUCAAA | 0.353 ± 0.042 | 0.00849 ± 0.0032
UCCUGGAUGUGUCUUGCAUAGUAUUUAGUUA | 0.243 ± 0.023 | 0.0211 ± 0.0053
UCCUGGAACAGCUUGCAUAGUAAUUUGUUA | 0.203 ± 0.031 | 0.0165 ± 0.0051
ACGACCUACAGCUUGCAUAGUAUUUACAAA | 0.565 ± 0.054 | 0.0113 ± 0.0046
UGGACCUAGAGCUUGCAUAGUUUUUAGUUA | 0.315 ± 0.019 | 0.0256 ± 0.0055
AGGACUUACAGCUUGCAUAGUAUUUAGUUA | 1.39 ± 0.064 | 0.0831 ± 0.012
UCCACCUACAGCUUGCAUAGUUUUUAGUAA | 0.216 ± 0.036 | 0.00954 ± 0.0022
UGGACCUACAGCUUGCAUAGAAUUUACUUA | 0.188 ± 0.026 | 0.0132 ± 0.0038
UCGCCUACAGCUUGCAUAGUAUUUAGUUA | 1.5 ± 0.066 | 0.0743 ± 0.014
UCGACCUACAGGUUGCAUAGUUUUUAGUUA | 0.258 ± 0.013 | 0.0179 ± 0.0032
UCCUGGAUGAGCUUGCAUAGUAUUUACAUA | 0.0877 ± 0.018 | 0.00668 ± 0.0035
UCCUGCUACAGCUUGCAUUGAAUUUAGUUA | 0.168 ± 0.012 | 0.00991 ± 0.0044
UCCACCUAGAGCUUGGAUAGUAUUUAGUUA | 0.716 ± 0.045 | 0.0332 ± 0.0057
UCCUGGAACACCUUGCAAAGUAUUUAGUUA | 0.511 ± 0.057 | 0.009 ± 0.0027
UCGACCUACAGCUUGCUUUGUAUUUAGUUA | 0.225 ± 0.019 | 0.00565 ± 0.0016
UGGACCUACAGCUAGCAUAGUAUAUAGUUA | 0.77 ± 0.049 | 0.014 ± 0.0042
UCGACCUACAGCUUGCAUAGUAUUUACAAA | 0.488 ± 0.053 | 0.00521 ± 0.0037
UCCACGAUCAGCUUGCAUAGUAUUUAGUAA | 1.09 ± 0.079 | 0.0387 ± 0.009
UCGACCUACAGCUUGCAUACAAUUUAGUUA | 0.0219 ± 0.0076 | 0.00334 ± 0.0025
AGGACCUACAGCAUGCAAAGUAUUUAGUUA | 1.11 ± 0.043 | 0.0157 ± 0.0037
AGGAGCUUCAGCUUGCAUAGUAUUUAGUUA | 1.48 ± 0.047 | 0.0864 ± 0.015
UCGACCUACACCUUGCAUAGUAUUUAGAUA | 0.428 ± 0.056 | 0.0194 ± 0.0038

Sequence | pre-steady-state target cleavage rate [1] | pre-steady-state target cleavage rate [2]
UCCUGGAUCUGCUUGCAUACUAUUUAGUUA | 0.137 ± 0.013 | 0.0196 ± 0.0058
UGGACCUACAGCUUGGAUAGUAUUUAGAUA | 0.427 ± 0.05 | 0.0235 ± 0.0046
UGGACCUACAGCUUGCAUAGAAUUUAGAUA | 0.173 ± 0.028 | 0.0108 ± 0.003
UCCUGGUACACCUUGCAUAGAAUUUAGUUA | 0.201 ± 0.062 | 0.00345 ± 0.0031
AGGACCUACAGCUUGCAUAGAAUUUACAAA | 0.393 ± 0.061 | 0.00381 ± 0.0032
UCCUGGAUCAGCUUUCAUAGUAUUUAGUUA | 0.49 ± 0.028 | 0.0103 ± 0.0023
UCGACCUACAGCUUGCAUAGUAUUUAGGUA | 0.404 ± 0.064 | 0.0199 ± 0.0067
UCGACCUUGUGCUUGCAUAGUAUUUAGUAA | 0.506 ± 0.051 | 0.0187 ± 0.0041
UCCUCCUAGAGCUUGCAUAGUAUUAAGUUA | 0.732 ± 0.078 | 0.0122 ± 0.0021
UCCUCCUAGAGCUUGCAUACUAUUUAGUUA | 0.407 ± 0.045 | 0.0215 ± 0.0045
UCCUGGAUGUGCUUGCAUAGUAUAAAGUUA | 0.0395 ± 0.0066 | 0.00918 ± 0.0031
UCCUGGAUCAGCUUGCAUAGUAAUUAGUUA | 0.677 ± 0.034 | 0.0324 ± 0.0094
UGGACCUACAGCUUGCAUAGUAUUUAUUA | 0.126 ± 0.015 | 0.00594 ± 0.0034
UCCUGGAACAGCUUGCAUAGUCAUUUAGUUA | 0.017 ± 0.0053 | 0.00564 ± 0.0024
UCCUGGAACAGCUUGCAUAGUAUUUAGCUUA | 0.283 ± 0.043 | 0.0543 ± 0.013
UCCUGGAACAGCUUGCAUAGAAAUUAGUUA | 0.069 ± 0.011 | 0.00611 ± 0.0041
AGGACCUACAGCAUGCAUAGUAUUUAGAUA | 0.616 ± 0.05 | 0.0177 ± 0.0048
AGGAGGUACAGCUUGCAUAGUAUUUACAAA | 0.277 ± 0.056 | 0.00731 ± 0.0023
AGGACCUACAGUUUGCAUAGUAUUUAGUUA | 1.25 ± 0.073 | 0.0653 ± 0.0093
UCCUGGAACAGCUUGCAUUGUUUUUAGUUA | 0.0622 ± 0.009 | 0.00871 ± 0.0034
AGGACCUACUGCUAGCAUAGUAUUUAGUUA | 1.17 ± 0.068 | 0.0412 ± 0.0075
AGGACCUACAGCAUGCAUAGAAUUUAGUUA | 0.461 ± 0.058 | 0.00954 ± 0.0022
UCCUGGAUGUGCUUACAUAGUAUUUAGUUA | 0.3 ± 0.022 | 0.013 ± 0.0032
UCCUGGAACUGCUUGCAUAGUAAUUAGUUA | 0.278 ± 0.019 | 0.0119 ± 0.0034
ACGGACCUACAGCUUGCAUAGUAUUUAGUUA | 1.24 ± 0.072 | 0.0796 ± 0.016
UCCACCUACAGGAUGCAUAGUAUUUAGUUA | 1.06 ± 0.17 | 0.00912 ± 0.0014
AGGACCAACAGCUUGCAUAGUAUUUAGAAA | 0.624 ± 0.071 | 0.033 ± 0.012
